Test results as given in patent publication US20200255516A1 (JIANGSU HENGRUI MEDICINE, published 2020).

Target: T1, human TIGIT (Sinobiological Co., Ltd., Cat. 10917-H08-H) (human, UniProt Q495A1 22-141)
T1 construct: also called huTIGIT; TIGIT-His
T1 sequence (looked up): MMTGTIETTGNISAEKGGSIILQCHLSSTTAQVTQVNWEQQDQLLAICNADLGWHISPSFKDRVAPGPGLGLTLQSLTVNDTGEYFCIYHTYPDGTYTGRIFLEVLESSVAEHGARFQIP
Assay: SPR (Biacore), captured antibody, TIGIT-His as analyte

B1: h1711-07 (antibody, human IgG4 S228P, kappa)
heavy: EVQLVQSGAEVKKPGSSVKVSCKASGYTFSNYWIGWVRQAPGQGLEWIGDIYPGGAYTNYNEKFKDRVTITADKSTSTAYMELSSLRSEDTAVYYCARGDYYDSSGRAMDYWGQGTLVTVSSASTKGPSVFPLAPCSRSTSESTAALGCLVKDYFPEPVTVSWNSGALTSGVHTFPAVLQSSGLYSLSSVVTVPSSSLGTKTYTCNVDHKPSNTKVDKRV[… human IgG4 Fc with S228P (EU numbers) …]
light: DIVMTQSPDSLAVSLGERATINCKSSQSLLYSRNQMNYLAWYQQKPGQSPKLLIYWTSTRESGVPDRFSGSGSGTDFTLTISSLQAEDVAVYYCQQYYSYPYTFGGGTKVEIKRTVAAPSVFIFPPSDEQLKSGTASVVCLLNNFYPREAKVQWKVDNALQSGNSQESVTEQDSKDSTYSLSSTLTLSKADYEKHKVYACEVTHQGLSSPVTKSFNRGEC
For B1, the Kd was 485 pM, the koff was 0.000732 s⁻¹ and the kon was 1.51e+06 M⁻¹ s⁻¹.

B2: h1711-05 (antibody)
heavy: EVQLVQSGAEVKKPGSSVKVSCKASGGTFSNYWIGWVRQAPGQGLEWMGDIYPGGAYTNYNEKFKDRVTITADKSTSTAYMELSSLRSEDTAVYYCARGDYYDSSGRAMDYWGQGTLVTVSSASTKGPSVFPLAPCSRSTSESTAALGCLVKDYFPEPVTVSWNSGALTSGVHTFPAVLQSSGLYSLSSVVTVPSSSLGTKTYTCNVDHKPSNTKVDKRV[… human IgG4 Fc with S228P (EU numbers) …]
light: DIVMTQSPDSLAVSLGERATINCKSSQSLLYSRNQMNYLAWYQQKPGQSPKLLIYWTSTRESGVPDRFSGSGSGTDFTLTISSLQAEDVAVYYCQQYYSYPYTFGGGTKVEIKRTVAAPSVFIFPPSDEQLKSGTASVVCLLNNFYPREAKVQWKVDNALQSGNSQESVTEQDSKDSTYSLSSTLTLSKADYEKHKVYACEVTHQGLSSPVTKSFNRGEC
Work on B2 yielded a Kd of 1220 pM, a koff of 0.00186 s⁻¹ and a kon of 1.52e+06 M⁻¹ s⁻¹.

B3: h1711-06 (antibody, human IgG4 S228P, kappa)
heavy: EVQLVQSGAEVKKPGSSVKVSCKASGGTFSNYWIGWVRQAPGQGLEWIGDIYPGGAYTNYNEKFKDRVTITADKSTSTAYMELSSLRSEDTAVYYCARGDYYDSSGRAMDYWGQGTLVTVSSASTKGPSVFPLAPCSRSTSESTAALGCLVKDYFPEPVTVSWNSGALTSGVHTFPAVLQSSGLYSLSSVVTVPSSSLGTKTYTCNVDHKPSNTKVDKRV[… human IgG4 Fc with S228P (EU numbers) …]
light: DIVMTQSPDSLAVSLGERATINCKSSQSLLYSRNQMNYLAWYQQKPGQSPKLLIYWTSTRESGVPDRFSGSGSGTDFTLTISSLQAEDVAVYYCQQYYSYPYTFGGGTKVEIKRTVAAPSVFIFPPSDEQLKSGTASVVCLLNNFYPREAKVQWKVDNALQSGNSQESVTEQDSKDSTYSLSSTLTLSKADYEKHKVYACEVTHQGLSSPVTKSFNRGEC
Work on B3 yielded a Kd of 1050 pM, a koff of 0.00152 s⁻¹ and a kon of 1.46e+06 M⁻¹ s⁻¹.

B4: h1711-08 (antibody, human IgG4 S228P, kappa)
heavy: EVQLVQSGAEVKKPGSSVKVSCKASGYTFSNYWIGWVRQAPGQGLEWIGDIYPGGAYTNYNEKFKDRVTITADKSTSTAYMEFSSLRSEDTAVYYCTRGDYYDSSGRAMDYWGQGTLVTVSSASTKGPSVFPLAPCSRSTSESTAALGCLVKDYFPEPVTVSWNSGALTSGVHTFPAVLQSSGLYSLSSVVTVPSSSLGTKTYTCNVDHKPSNTKVDKRV[… human IgG4 Fc with S228P (EU numbers) …]
light: DIVMTQSPDSLAVSLGERATINCKSSQSLLYSRNQMNYLAWYQQKPGQSPKLLIYWTSTRESGVPDRFSGSGSGTDFTLTISSLQAEDVAVYYCQQYYSYPYTFGGGTKVEIKRTVAAPSVFIFPPSDEQLKSGTASVVCLLNNFYPREAKVQWKVDNALQSGNSQESVTEQDSKDSTYSLSSTLTLSKADYEKHKVYACEVTHQGLSSPVTKSFNRGEC
For B4, the Kd was 207 pM, the koff was 0.000441 s⁻¹ and the kon was 2.13e+06 M⁻¹ s⁻¹.

B5: h1711-09 (antibody)
heavy: EVQLVQSGAEVKKPGSSVKVSCKASGGTFSNYWIGWVRQAPGQGLEWMGDIYPGGAYTNYNEKFKDRVTITADKSTSTAYMELSSLRSEDTAVYYCARGDYYDSSGRAMDYWGQGTLVTVSSASTKGPSVFPLAPCSRSTSESTAALGCLVKDYFPEPVTVSWNSGALTSGVHTFPAVLQSSGLYSLSSVVTVPSSSLGTKTYTCNVDHKPSNTKVDKRV[… human IgG4 Fc with S228P (EU numbers) …]
light: DIVMTQSPDSLAVSLGERATISCKSSQSLLYSRNQMNYLAWYQQKPGQSPKLLIYWTSTRESGVPDRFSGSGSGTDFTLTISSLQAEDVAVYYCQQYYSYPYTFGGGTKVEIKRTVAAPSVFIFPPSDEQLKSGTASVVCLLNNFYPREAKVQWKVDNALQSGNSQESVTEQDSKDSTYSLSSTLTLSKADYEKHKVYACEVTHQGLSSPVTKSFNRGEC
With B5 the Kd was 1190 pM, the koff was 0.00185 s⁻¹ and the kon was 1.55e+06 M⁻¹ s⁻¹.

B6: h1711-10 (antibody, human IgG4 S228P, kappa)
heavy: EVQLVQSGAEVKKPGSSVKVSCKASGGTFSNYWIGWVRQAPGQGLEWIGDIYPGGAYTNYNEKFKDRVTITADKSTSTAYMELSSLRSEDTAVYYCARGDYYDSSGRAMDYWGQGTLVTVSSASTKGPSVFPLAPCSRSTSESTAALGCLVKDYFPEPVTVSWNSGALTSGVHTFPAVLQSSGLYSLSSVVTVPSSSLGTKTYTCNVDHKPSNTKVDKRV[… human IgG4 Fc with S228P (EU numbers) …]
light: DIVMTQSPDSLAVSLGERATISCKSSQSLLYSRNQMNYLAWYQQKPGQSPKLLIYWTSTRESGVPDRFSGSGSGTDFTLTISSLQAEDVAVYYCQQYYSYPYTFGGGTKVEIKRTVAAPSVFIFPPSDEQLKSGTASVVCLLNNFYPREAKVQWKVDNALQSGNSQESVTEQDSKDSTYSLSSTLTLSKADYEKHKVYACEVTHQGLSSPVTKSFNRGEC
With B6 the Kd was 1030 pM, the koff was 0.00152 s⁻¹ and the kon was 1.47e+06 M⁻¹ s⁻¹.

B7: h1711-11 (antibody, human IgG4 S228P, kappa)
heavy: EVQLVQSGAEVKKPGSSVKVSCKASGYTFSNYWIGWVRQAPGQGLEWIGDIYPGGAYTNYNEKFKDRVTITADKSTSTAYMELSSLRSEDTAVYYCARGDYYDSSGRAMDYWGQGTLVTVSSASTKGPSVFPLAPCSRSTSESTAALGCLVKDYFPEPVTVSWNSGALTSGVHTFPAVLQSSGLYSLSSVVTVPSSSLGTKTYTCNVDHKPSNTKVDKRV[… human IgG4 Fc with S228P (EU numbers) …]
light: DIVMTQSPDSLAVSLGERATISCKSSQSLLYSRNQMNYLAWYQQKPGQSPKLLIYWTSTRESGVPDRFSGSGSGTDFTLTISSLQAEDVAVYYCQQYYSYPYTFGGGTKVEIKRTVAAPSVFIFPPSDEQLKSGTASVVCLLNNFYPREAKVQWKVDNALQSGNSQESVTEQDSKDSTYSLSSTLTLSKADYEKHKVYACEVTHQGLSSPVTKSFNRGEC
Binder B7 has a Kd of 494 pM, a koff of 0.000852 s⁻¹ and a kon of 1.72e+06 M⁻¹ s⁻¹.

B8: h1711-12 (antibody, human IgG4 S228P, kappa)
heavy: EVQLVQSGAEVKKPGSSVKVSCKASGYTFSNYWIGWVRQAPGQGLEWIGDIYPGGAYTNYNEKFKDRVTITADKSTSTAYMEFSSLRSEDTAVYYCTRGDYYDSSGRAMDYWGQGTLVTVSSASTKGPSVFPLAPCSRSTSESTAALGCLVKDYFPEPVTVSWNSGALTSGVHTFPAVLQSSGLYSLSSVVTVPSSSLGTKTYTCNVDHKPSNTKVDKRV[… human IgG4 Fc with S228P (EU numbers) …]
light: DIVMTQSPDSLAVSLGERATISCKSSQSLLYSRNQMNYLAWYQQKPGQSPKLLIYWTSTRESGVPDRFSGSGSGTDFTLTISSLQAEDVAVYYCQQYYSYPYTFGGGTKVEIKRTVAAPSVFIFPPSDEQLKSGTASVVCLLNNFYPREAKVQWKVDNALQSGNSQESVTEQDSKDSTYSLSSTLTLSKADYEKHKVYACEVTHQGLSSPVTKSFNRGEC
For B8, the Kd was 205 pM, the koff was 0.000431 s⁻¹ and the kon was 2.1e+06 M⁻¹ s⁻¹.
